Reference: the supplement of paper PMC9446081
Hit rate of the full screen: of about 39,000 compounds, about 220 (0.56%) showed activity. Some of the results follow.

Test system: Escherichia coli K-12 BW25113
Experiment: relative growth (OD600 normalised to plate interquartile mean) (fraction); higher = less growth inhibition, active = 0.2 or less
Settings: 50 µM; LB; incubation time: overnight (16-24 h)
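Further: static incubation at 37 °C against the wild-type strain, values averaged over two biological replicates.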

Question: How did the relative growth turn out when `CN1CCN(C(=O)C[C@@H]2CC[C@@H]3[C@H](COC[C@H](O)CN3C(=O)C3CCOCC3)O2)CC1` was run?
Answer: inactive: 0.99

Question: With `C[C@H]1CN([C@@H](C)CO)C(=O)c2cccc(NS(=O)(=O)c3ccccc3)c2O[C@H]1CN(C)S(=O)(=O)c1ccc(F)cc1` as the compound, how does the relative growth read?
Answer: inactive: 0.982

Question: Which relative growth does the source give for `C[C@@H]1CN([C@@H](C)CO)C(=O)c2cc(NS(=O)(=O)c3ccccc3)ccc2O[C@@H](C)CCCCO[C@H]1CN(C)C(=O)Nc1cccc2ccccc12` here?
Answer: inactive: 1.02

Question: With `N[C@H]1CCCN(Cc2ccc(F)cc2)C1` as the compound, how does the relative growth read?
Answer: inactive: 1.03

Question: With `C=CCn1c(=O)c2c(nc(NCCO)n2C)n(C)c1=O` as the compound, how does the relative growth read?
Answer: inactive: 0.994

Question: For `CCNC(=O)C[C@@H]1CC[C@@H](NC(=O)C2CC2)[C@H](CO)O1`, which relative growth is on record?
Answer: inactive: 1.05

Question: How did the relative growth turn out when `O=C(C[C@@H]1C[C@H]2c3cc(NC(=O)NC4CCCC4)ccc3O[C@H]2[C@@H](CO)O1)NCCN1CCCCC1` was run?
Answer: inactive: 1.01

Question: `C[C@H](CO)N1C[C@H](C)[C@H](CN(C)C(=O)Nc2cccc3ccccc23)Oc2ccc(NC(=O)Nc3ccc(F)cc3)cc2CC1=O` was tested. Which relative growth did it give?
Answer: inactive: 0.99

Question: With `Cc1ccc(S(=O)(=O)Nc2ccc3c(c2)C(=O)N(C)[C@H]2CC[C@H](CC(=O)NCCc4ccncc4)O[C@@H]2CO3)cc1` as the compound, how does the relative growth read?
Answer: inactive: 0.995

Question: `C[C@H](CO)N1C[C@H](C)[C@@H](CN(C)S(=O)(=O)c2cn(C)cn2)OCCCC[C@H](C)Oc2ccc(NS(=O)(=O)c3cccs3)cc2C1=O` was tested. Which relative growth did it give?
Answer: inactive: 0.95

Question: `C[C@H]1CN([C@@H](C)CO)C(=O)CCCn2cc(nn2)CO[C@H]1CN(C)S(=O)(=O)c1ccc(C#N)cc1` was tested. Which relative growth did it give?
Answer: inactive: 1.03

Question: `COCCNC(=O)C[C@@H]1C[C@@H]2c3cc(NS(C)(=O)=O)ccc3O[C@@H]2[C@H](CO)O1` was tested. Which relative growth did it give?
Answer: inactive: 1

Question: Which relative growth does the source give for `CCS(=O)(=O)N1CC[C@]2(CC1)CN(Cc1ccc3c(c1)OCO3)[C@H](CO)c1[nH]c3cc(ccc3c12)OC` here?
Answer: inactive: 1.05

Question: How did the relative growth turn out when `C[C@@H]1CCCCO[C@@H](CN(C)S(=O)(=O)c2ccc(F)cc2)[C@@H](C)CN([C@H](C)CO)C(=O)c2cc(NC(=O)Nc3ccc(C(F)(F)F)cc3)ccc2O1` was run?
Answer: inactive: 1.05

Question: `Cc1noc(C)c1NC(=O)N(C)C[C@@H]1Oc2ccc(NS(=O)(=O)c3cccs3)cc2CC(=O)N([C@@H](C)CO)C[C@@H]1C` was tested. Which relative growth did it give?
Answer: inactive: 1

Question: For `CCCNC(=O)N1C[C@]2(CN(C2)S(=O)(=O)c2ccc(cc2)OC)c2c(n(c3cc(ccc23)OC)C)[C@H]1CO`, which relative growth is on record?
Answer: inactive: 0.993

Question: For `CC(C)NC(=O)Nc1ccc2c(c1)C(=O)N([C@H](C)CO)C[C@H](C)[C@H](CN(C)S(=O)(=O)c1cccs1)O2`, which relative growth is on record?
Answer: inactive: 0.98

Question: For `C=CCNC(=O)[C@@H]1[C@H]2C(=O)O[C@H](c3ccccc3)[C@H](c3ccccc3)N2[C@H](c2ccccc2OCCO)[C@@]12C(=O)Nc1ccc(C#CC3=CCCCC3)cc12`, which relative growth is on record?
Answer: inactive: 1.06

Question: For `O=C(O)c1cn(C2CC2)c2cc(N3CCC(O)(COc4ccc(N5C[C@H](CO)OC5=O)cc4F)CC3)c(F)cc2c1=O`, which relative growth is on record?
Answer: active: 0.111

Question: How did the relative growth turn out when `C[C@@H]1CN([C@H](C)CO)C(=O)c2cc(NC(=O)C3CCCCC3)ccc2O[C@@H](C)CCCCO[C@@H]1CN(C)CC1CCCCC1` was run?
Answer: inactive: 0.975

Question: How did the relative growth turn out when `C[C@H](CO)N1C[C@H](C)[C@@H](CN(C)Cc2ccc(Oc3ccccc3)cc2)Oc2ccc(NC(=O)Nc3ccc(F)cc3)cc2CC1=O` was run?
Answer: inactive: 0.974

Question: `Cn1cnc(CCNC(=O)C[C@@H]2CC[C@H]3[C@@H](COC[C@H](O)CN3C(=O)C3CC3)O2)c1` was tested. Which relative growth did it give?
Answer: inactive: 0.992

Question: How did the relative growth turn out when `CCN(CC)c1ccc2c(-c3ccc(S(=O)(=O)O)cc3S(=O)(=O)O)c3ccc(N(CC)CC)cc3[o+]c2c1` was run?
Answer: inactive: 1.09

Question: `Cc1noc(C)c1S(=O)(=O)Nc1ccc2c(c1)C(=O)N([C@H](C)CO)C[C@@H](C)[C@@H](CN(C)S(=O)(=O)c1ccc(Cl)cc1)O2` was tested. Which relative growth did it give?
Answer: inactive: 0.996

Question: `COc1ccc(NC(=O)Nc2ccc3c(c2)C(=O)N([C@H](C)CO)C[C@H](C)[C@@H](CN(C)Cc2ccc(Cl)c(Cl)c2)O3)cc1` was tested. Which relative growth did it give?
Answer: inactive: 0.965

Question: Which relative growth does the source give for `C[C@H]1CN([C@@H](C)CO)C(=O)c2cc(NC(=O)Nc3ccccc3)ccc2O[C@@H]1CN(C)Cc1ccc(Oc2ccccc2)cc1` here?
Answer: inactive: 0.994

Question: With `CCCN1C[C@H](C)[C@H](OC)CN(C)C(=O)c2cc(NS(=O)(=O)c3cn(C)cn3)ccc2OC[C@H]1C` as the compound, how does the relative growth read?
Answer: inactive: 0.943

Question: How did the relative growth turn out when `C[C@]12C[C@@H](O)[C@@H]3C[C@@]1(O[C@@H]1O[C@H](CO)[C@@H](O)[C@H](O)[C@H]1O)[C@@]3(COC(=O)c1ccccc1)C(=O)O2` was run?
Answer: inactive: 1.03

Question: How did the relative growth turn out when `C[C@H]1CN([C@@H](C)CO)C(=O)Cc2cc(NS(C)(=O)=O)ccc2O[C@@H]1CN(C)C(=O)Nc1ccc(F)cc1` was run?
Answer: inactive: 0.996

Question: Which relative growth does the source give for `CNC(=O)CN(CCN(CCN(CC(=O)[O-])CC(=O)NC)CC(=O)[O-])CC(=O)[O-].[Gd]` here?
Answer: inactive: 1.15

Question: `C[C@H](NC(=O)C[C@@H]1CC[C@@H](NC(=O)CN2CCOCC2)[C@@H](CO)O1)c1ccccc1` was tested. Which relative growth did it give?
Answer: inactive: 0.968

Question: With `COc1ccccc1S(=O)(=O)N1C[C@@H](O)COC[C@@H]2O[C@@H](CC(=O)O)CC[C@H]21` as the compound, how does the relative growth read?
Answer: inactive: 0.965

Question: How did the relative growth turn out when `C[C@H](CO)N1C[C@H](C)[C@@H](CN(C)C(=O)Nc2ccc(F)cc2)OCCCC[C@H](C)Oc2ccc(NS(=O)(=O)c3ccc(F)cc3)cc2C1=O` was run?
Answer: inactive: 1.01

Question: Which relative growth does the source give for `COCC#Cc1cnc2c(c1)C(=O)N([C@H](C)CO)C[C@H](C)[C@H](CN(C)C(=O)c1ccc3c(c1)OCO3)O2` here?
Answer: inactive: 0.983

Question: With `COc1ccc(CN(C)C[C@@H]2Oc3c(NC(=O)Nc4ccc(C(F)(F)F)cc4)cccc3C(=O)N([C@H](C)CO)C[C@@H]2C)cc1` as the compound, how does the relative growth read?
Answer: inactive: 0.995

Question: Which relative growth does the source give for `C[C@@H]1CN([C@@H](C)CO)C(=O)Cc2cc(NC(=O)Cc3cn(C)c4ccccc34)ccc2O[C@H]1CN(C)S(C)(=O)=O` here?
Answer: inactive: 0.936

Question: With `Clc1ccc(Cn2ccnc2)cc1` as the compound, how does the relative growth read?
Answer: inactive: 0.941

Question: With `NC1=NC(=O)[C@@H]2N=C(Br)N([C@H]3O[C@H]4COP(=O)(O)O[C@@H]4[C@@H]3O)[C@H]2N1` as the compound, how does the relative growth read?
Answer: inactive: 1.03
